According to patent US9777034B2, “Modular synthesis of amphiphilic Janus glycodendrimers and their self-assembly into glycodendrimersomes” (The Trustees of The University of Pennsylvania, priority 2013, dated 2017):

Experiment: Micropipette aspiration of giant glycodendrimersomes
Conditions: giant vesicles prepared by hydration

Substance: (3,4)12G1-PE-spacer-TRZ-(galactose)2 [Compound 50aa]
- behaviour in micropipette aspiration: buckles in response to the applied suction pressure
